Laboratory results from PubChem BioAssay AID2546 (National Center for Advancing Translational Sciences (NCATS), 2010).
Among all 310,000 compounds or so, about 11,000 (3.5%) were called active. The shares of active, inactive and inconclusive entries below differ from those in the screen. Calls follow the shape of the dose curve; as a rule, active = well fitted inhibition curve with a large enough effect; inconclusive = small, poorly fitted or top-dose-only effect, or effect the other way; inactive = flat fitted curve, though single readings scatter. Potencies of inconclusive entries are left out as doubtful fits.

assay: VP16 counterscreen qHTS for inhibitors of ROR gamma transcriptional activity; settings: Drosophila S2 Gal4-VP16 UAS-luciferase, luminescence, 20 h; activity, negative = inhibition: at 53.6 µM (top of the series);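 also: Gal4-VP16 expression switched on by copper sulfate through the metallothionein promoter; nearly all actives have a fitted effect of over 50% in size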
% is scaled to controls: 0 for no effect and ±100 for the full control effect; potency is read from the fitted curve at half-maximal effect; tags tell the direction and shape of the fitted curve.

Structure (SMILES)	Potency	activity, negative = inhibition
CSc1cc(-c2ccc(Cl)cc2)c(C(=O)NN)s1	inconclusive [inhibitor, single point]	–
Brc1ccc(-c2nc3ccccc3s2)s1	inconclusive [inhibitor, single point]	–
COc1cc(/C=C/C(=O)O)ccc1OCc1ccccc1C#N	inconclusive [inhibitor, partial curve]	–
O=C1C(=O)c2ccccc2C([O-])=C1[n+]1ccccc1	–	inactive: -20.5%
O=C(NCCCn1ccnc1)C(=O)NCc1ccccc1	–	inactive: -1.38%
CC(C)NC(=O)C1CCN(c2ccc(S(=O)(=O)N3CCOCC3)cc2Cl)CC1	–	inactive: 0.909%
CC(=O)OCC1OC(OCc2cn(C[C@H]3CC[C@H](Cn4cc(COC5OC(COC(C)=O)C(OC(C)=O)C(OC(C)=O)C5OC(C)=O)nn4)O3)nn2)C(OC(C)=O)C(OC(C)=O)C1OC(C)=O (some centres not stated)	–	inactive: 3.41%
O=[N+]([O-])c1cc([N+](=O)[O-])c(Oc2cccc(Cl)c2Cl)cc1NN1CCCCC1	–	inactive: 7.04%
Cc1cccc(NC(=O)c2ccc(N3CCOCC3)c([N+](=O)[O-])c2)n1	–	inactive: -1.47%
CC1Sc2ccc(S(=O)(=O)N3CCC(C(=O)N(C)Cc4ccccc4)CC3)cc2NC1=O (configuration not stated)	inconclusive [inhibitor, single point]	–
O=[N+]([O-])c1ccc(C(=S)N2CCN(c3ccc(F)cc3)CC2)cc1	–	inactive: -3.87%
Cc1sc(NC(=O)c2ccco2)c(C(c2cccnc2)N2CCN(CCO)CC2)c1C (configuration not stated)	–	inactive: -7.49%
CC1CCc2sc(-c3n[nH]c(=S)o3)cc2C1 (configuration not stated)	inconclusive [inhibitor, single point]	–
COc1cc(C(=O)N(C)CC2CCN(CCc3cccc(C(F)(F)F)c3)CC2)ccc1C	–	inactive: -2.27%
COc1ccc(OCCC(=O)Nc2nccs2)cc1	inconclusive [activator, full curve, poor fit]	–
CCOCCCNC(=O)c1ccccc1SCC	inconclusive [inhibitor, partial curve, poor fit]	–
CCCCn1cnc2cc(C)c(C)cc21	inconclusive [inhibitor, single point]	–
Cc1cc2c(NCc3ccccc3)ncnc2s1	inconclusive [inhibitor, single point]	–
CC1(C)CC(=O)C2=C(C1)Oc1nc3ccccc3cc1C2C(C#N)C#N (configuration not stated)	inconclusive [inhibitor, single point]	–
Cc1ccc(C(=O)N/N=C/c2cc(Br)ccc2O)cn1	active: 1.12 µM	–
COc1ccccc1C(=O)NC(=Nc1nc2ccccc2o1)NC(=O)c1ccccc1OC	inconclusive [inhibitor, full curve, poor fit]	–
Cc1ccc(/C=C/C(=O)N2CCN(Cc3ccccc3)CC2)o1	inconclusive [inhibitor, single point]	–
O=C(NC1CCCCC1)C1CCCN(S(=O)(=O)c2ccc(F)cc2)C1 (configuration not stated)	–	inactive: -4.88%
COc1cc(/C=N/NC(=O)CCn2cnc(-c3ccccc3)c2-c2ccccc2)ccc1O	inconclusive [inhibitor, single point]	–
O=C(OCC#CCSc1nnc(-c2ccc(Br)cc2)o1)c1ccco1	inconclusive [inhibitor, single point]	–
Cc1ccccc1-c1noc(CNC(=O)c2ccco2)n1	–	inactive: -1.38%

Structure (SMILES)	Potency	activity, negative = inhibition
CCCOC(=O)Nc1nc2ccccc2o1	inconclusive [inhibitor, single point]	–
Cc1cccc(N2CCN(C(=O)C3CCN(c4ncnc5c4nc4n5CCCCC4)CC3)CC2)c1C	active: 8.91 µM	–
O=C1C(Cl)=C(NCC2CCCO2)C(=O)N1CCc1ccccc1 (configuration not stated)	inconclusive [activator, full curve, poor fit]	–
O=C(Nc1nnc(SCC(=O)N2CCCc3ccccc32)s1)c1ccccc1	inconclusive [inhibitor, partial curve]	–
O=C(Nc1ccccn1)c1ccc2ccccc2c1O	active: 12.6 µM	–
CCOc1ccc(NC(=O)CCCN2C(=S)NC(C)(C)CC2C)cc1 (configuration not stated)	inconclusive [inhibitor, single point]	–
Cc1onc(COc2ccccc2O)c1Br	–	inactive: 17.9%
CC(=O)N(c1ccccc1C)S(=O)(=O)c1ccc(Cl)cc1	–	inactive: -9.2%
O=C(NC(=S)N1CCN(Cc2ccccc2)CC1)c1ccco1	active: 3.55 µM	–
Cn1c(SCc2cccc(F)c2)nnc1-c1cnccn1	inconclusive [activator, partial curve]	–
Cc1ccc(Nc2nc(NCc3ccco3)c3ccccc3n2)cc1	–	inactive: -12.7% [at 10 µM]
Cc1ccccc1OCC(O)Cn1c2ccccc2c2ccccc21 (configuration not stated)	inconclusive [inhibitor, single point]	–
OCCC1CN(Cc2nc(-c3ccccc3)cs2)CCN1Cc1ccc(F)cc1 (configuration not stated)	inconclusive [inhibitor, single point]	–
CCc1ccc(-c2c(C)sc(NC(C)=O)c2C(N)=O)cc1	–	inactive: 0.719%
CN(c1ccccc1)S(=O)(=O)c1ccc(NC(=O)c2nc(S(C)(=O)=O)ncc2Cl)cc1	active: 2.82 µM	–
O=C(Nc1ccc2c(c1)OCCO2)c1ccccc1	inconclusive [inhibitor, single point]	–
O=[N+]([O-])c1cc(S(=O)(=O)Nc2ccccc2)ccc1N1CCN(c2ccccc2)CC1	inconclusive [inhibitor, single point]	–
Cc1ccccc1NC(=S)NC(NC(=O)c1ccccc1C)C(Cl)(Cl)Cl (configuration not stated)	inconclusive [inhibitor, single point]	–
CC(=O)Nc1ccc(S(=O)(=O)N2CCN(C(C)CCc3ccccc3)CC2)cc1 (configuration not stated)	–	inactive: 5.74%
O=C(c1ccco1)c1nnn(Cc2ccccc2)c1-c1ccccc1	–	inactive: 18.3%
Cc1cc(CNC(=O)c2cccc(OC3CCN(S(=O)(=O)N(C)C)CC3)c2)on1	–	inactive: 23.8%
S=c1[nH]cnc2sc(Nc3ccccc3)nc12	active: 2.51 µM	–
COc1ccc(CCNC(=O)c2ccc(Cl)c(S(=O)(=O)N(C)c3ccccc3)c2)cc1	–	inactive: -20.7%
CC(=O)Nc1ccc2nc(-c3ccc(Br)o3)[nH]c2c1	–	inactive: -5.6%
CC(C)(C)OC(=O)C(Cc1ccc(OC(C)(C)C)cc1)NC(=O)CNC(=O)CNC(=O)OCc1ccccc1 (configuration not stated)	inconclusive [inhibitor, single point]	–
CC1(C)Cc2c(sc(NC(=O)c3ccc(C(=O)c4ccccc4)cc3)c2C(N)=O)C(C)(C)N1	active: 12.6 µM	–

Structure (SMILES)	Potency	activity, negative = inhibition
CCC(CNc1cc(OC)cc2cccnc12)NC1CCCCC1 (configuration not stated)	inconclusive [inhibitor, single point]	–
Cc1cc(C)nc(Nc2nc(C)c3cc4c(cc3n2)OCO4)n1	active: 7.08 µM	–
CO/N=C/c1ccc(N2CCN(C(=O)c3cccc(Cl)c3)CC2)c([N+](=O)[O-])c1	inconclusive [inhibitor, single point]	–
CC(C)NC(=S)N/N=C1\CCCCc2ccccc21	active: 2 µM	–
CCCc1nc2ccccc2c(NC(=O)CN(CC)CC)c1CC	–	inactive: -0.406%
CCc1ccc(-n2cc(-c3ccc([N+](=O)[O-])cc3)[nH]c2=S)cc1	inconclusive [inhibitor, full curve]	–
Cc1ccsc1/C=N/n1c(C2CCCCC2)n[nH]c1=S	active: 3.16 µM	–
CN(C)CCCN(C(=O)C1=COCCO1)c1nc2ccc(Br)cc2s1	–	inactive: -15.3%
CCCN(Cc1ccccc1)C(=S)Nc1cccc(C(F)(F)F)c1	inconclusive [inhibitor, single point]	–
Cc1ccc(S(=O)(=O)NCc2ccncc2)cc1C	active: 3.98 µM	–
O=C(NC(=S)N1CCN(c2ccc(F)cc2)CC1)C12CC3CC(CC(C3)C1)C2	active: 3.16 µM	–
CCOC(=O)/C(C#N)=C/c1c(Oc2cc(C)cc(C)c2)nc2ccccn2c1=O	inconclusive [inhibitor, partial curve, poor fit]	–
CN1CCCCCC1C(=O)N1CCC(N2CCC(C(=O)N3CCOCC3)CC2)CC1 (configuration not stated)	–	inactive: -4.72%
O=C(Nc1ccc(Br)cc1)NC1CCCCCCC1	inconclusive [inhibitor, partial curve, poor fit]	–
Cc1ccccc1NC(=O)Cc1nc(COC(=O)c2cccc(C)c2O)cs1	–	inactive: -3.68%
Cc1ccc(C(C(=O)NCc2ccco2)N(C(=O)CNC(=O)c2cccs2)c2ccc(C)cc2C)cc1 (configuration not stated)	inconclusive [inhibitor, single point]	–
COc1ccc2c(C)nc(Nc3nc(C)c(C)c(=O)[nH]3)nc2c1	active: 2.82 µM	–
COc1cc(C(=O)NCC(c2cccs2)N(C)C)cc(Cl)c1OC(C)C (configuration not stated)	–	inactive: 2.61%
O=c1c2sccc2[nH]c(=S)n1-c1ccccc1	active: 3.55 µM	–
COc1ccc(-n2ncc3c(NCC4CCCO4)ncnc32)cc1 (configuration not stated)	inconclusive [inhibitor, single point]	–
COc1ccc(C(C)NC(=S)NC2CCCC2)cc1OC (configuration not stated)	inconclusive [inhibitor, single point]	–
O=S(=O)(Nc1ccc2c(c1)nc1n2CCN(Cc2ccccc2)C1)c1ccc(F)cc1	–	inactive: 3.72%
CC(C)=CCC/C(C)=C/CO/N=C1/C[C@@H](O)[C@@H](O)[C@@H]2[C@@H]3C(=O)N(C4CCCCC4)C(=O)[C@H]3CC[C@H]12	–	inactive: -0.765% [at 10 µM]
CCN(CC)C(=O)c1ccc2nc(-c3ccccc3)c(-c3ccccc3)nc2c1	–	inactive: -6.04%
O=S(=O)(NNc1ccc(Cl)nn1)c1ccc(F)cc1	inconclusive [inhibitor, single point]	–
